From PMC4336329 (PLoS ONE, 2015)
About 14,000 (4.5%) of roughly 310,000 compounds showed an effect of 50% or more. Effects have a minus sign here. Some of the results follow.

These compounds were tested against human ether-à-go-go-related gene (hERG) potassium channel (human, UniProt Q12809) (assay: primary screen, population patch clamp on CHO cells stably expressing hERG).
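Also: peak tail current of the secondary pulse compared with the same well before compound.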

Sequence of human ether-à-go-go-related gene (hERG) potassium channel (Q12809 whole entry, looked up): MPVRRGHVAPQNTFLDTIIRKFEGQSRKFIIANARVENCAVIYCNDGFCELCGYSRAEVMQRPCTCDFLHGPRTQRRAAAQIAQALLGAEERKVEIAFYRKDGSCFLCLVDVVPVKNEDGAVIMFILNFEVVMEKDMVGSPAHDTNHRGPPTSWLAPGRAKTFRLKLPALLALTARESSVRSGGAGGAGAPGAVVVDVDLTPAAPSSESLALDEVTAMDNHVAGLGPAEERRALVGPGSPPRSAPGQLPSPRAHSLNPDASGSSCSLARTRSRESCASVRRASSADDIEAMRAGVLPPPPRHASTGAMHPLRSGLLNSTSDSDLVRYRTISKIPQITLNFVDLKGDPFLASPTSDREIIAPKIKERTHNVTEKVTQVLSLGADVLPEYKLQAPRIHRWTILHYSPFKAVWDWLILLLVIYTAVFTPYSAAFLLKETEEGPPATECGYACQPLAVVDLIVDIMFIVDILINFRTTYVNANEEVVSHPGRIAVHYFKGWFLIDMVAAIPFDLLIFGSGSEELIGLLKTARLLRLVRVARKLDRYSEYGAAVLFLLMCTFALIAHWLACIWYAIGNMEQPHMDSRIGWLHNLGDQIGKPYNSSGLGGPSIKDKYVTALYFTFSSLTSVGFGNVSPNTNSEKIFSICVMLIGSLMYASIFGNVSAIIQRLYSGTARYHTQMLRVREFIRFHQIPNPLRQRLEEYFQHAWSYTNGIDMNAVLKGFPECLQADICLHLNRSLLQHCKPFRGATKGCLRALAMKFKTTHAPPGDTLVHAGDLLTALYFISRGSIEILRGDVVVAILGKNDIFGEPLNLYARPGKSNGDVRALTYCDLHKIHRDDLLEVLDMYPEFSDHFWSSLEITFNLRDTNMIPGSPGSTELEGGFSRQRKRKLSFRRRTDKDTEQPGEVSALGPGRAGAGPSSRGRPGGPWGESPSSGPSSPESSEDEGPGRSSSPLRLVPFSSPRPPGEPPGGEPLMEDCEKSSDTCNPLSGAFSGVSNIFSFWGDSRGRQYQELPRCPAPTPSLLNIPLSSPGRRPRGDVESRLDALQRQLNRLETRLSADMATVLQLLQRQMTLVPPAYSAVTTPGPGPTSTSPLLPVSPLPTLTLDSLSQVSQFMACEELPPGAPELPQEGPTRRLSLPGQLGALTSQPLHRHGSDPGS

| Structure (SMILES) | hERG current change (%, negative = inhibition) at 10uM [%] |
| --- | --- |
| CCC1(CC)Cc2ccccc2-c2nc3ccccc3c(=O)n21 | 11.4 |
| CC(C)CCNC(=O)CN(CCN1CCOCC1)C(=O)Cn1nnc(-c2ccc(F)cc2)n1 | -11.1 |
| CCCN1C(=O)C2(C(C(=O)c3ccc(C)o3)=C(O)C(=O)N2CCCOC)c2ccccc21 (stereo not drawn) | 9.53 |
| COC(=O)/C=C/c1ccc2c(c1)S(=O)(=O)N(c1cccc(OC)c1)[C@H]2CC(=O)OC | -7.05 |
| O=C(CCc1ccccc1)c1c(O)cc(O)cc1O | 3.92 |
| Br.CC1=C(c2ccccc2)SC2=NCCN21 | -10.7 |
| O=[N+]([O-])c1ccc(Cl)c(/C=N/n2c(COc3ccccc3)n[nH]c2=S)c1 | 12.7 |
| C=CCOc1c(CNc2ncn[nH]2)cccc1OCC | -0.669 |
| O=C1C(Cl)=C(N2CCOCC2)C(=O)N1c1ccccc1F | 20.3 |
| O=C(NCC1CCCO1)C1CCCCN1S(=O)(=O)c1ccc(F)cc1 (stereo not drawn) | 1.57 |
| Cc1nn(C)c2ncc(C(=O)c3ccccc3O)cc12 | 13.7 |
| CCOc1ccc(S(=O)(=O)NCCC(=O)N2CC(C)OC(C)C2)cc1 (stereo not drawn) | 8.02 |
| Cc1cccc(-n2c(-c3ccco3)nc3nc4ccccc4nc32)c1 | -8.72 |
| Cc1ccnc(SCC(=O)c2ccc([N+](=O)[O-])cc2)n1 | -22.7 |
| CCc1nc(N2CCN(S(=O)(=O)c3ccc(Br)cc3)CC2)c2c(C)c(C)sc2n1 | -32 |
| O=C(c1cc2ccccc2oc1=O)N(c1ccccc1)C1C=CS(=O)(=O)C1 (stereo not drawn) | 2.29 |
| CCc1nnc(NS(=O)(=O)c2ccc(NC(=O)c3ccco3)cc2)s1 | 1.04 |
| CC12CCC(C(=O)O)(c3nc4cc([N+](=O)[O-])ccc4nc31)C2(C)C (stereo not drawn) | -1.75 |
| O=C(Nc1ccccc1F)c1ccc([N+](=O)[O-])s1 | 0.218 |
| Cc1cc(C)n2nc(SCc3cc(=O)oc4cc(C)c(C)cc34)nc2n1 | 5.02 |
| CCOC(=O)C1CCN(c2c(NCc3ccc(C(=O)NC(C)CC)cc3)c(=O)c2=O)CC1 (stereo not drawn) | -17.1 |
| O=C(O)CCC(=O)NCCn1c(-c2ccccc2)csc1=Nc1ccccc1 | 7.98 |

| Structure (SMILES) | hERG current change (%, negative = inhibition) at 10uM [%] |
| --- | --- |
| CCN(C(=O)c1cccc(F)c1)c1ccccc1C | -3.53 |
| C#CCN1c2ccccc2Sc2cccnc21 | 16.2 |
| O=C(O)CCNS(=O)(=O)c1ccc(Oc2ccccc2Cl)cc1 | -5.18 |
| COC(=O)C1SCC2C(=O)N(Cc3ccc(F)cc3)CC(=O)N21 (stereo not drawn) | 14.3 |
| CC(=O)Nc1cccn(Cc2c(Cl)cccc2Cl)c1=O | 9.71 |
| Cc1ccc(S(=O)(=O)NCCC(=O)NNC(=O)C2COc3ccccc3O2)cc1 (stereo not drawn) | -4.79 |
| CC(C)OP(=O)(O)NC(=O)c1ccccc1 | 23.8 |
| Cc1ccc(NC(=O)CCCCCNS(=O)(=O)c2ccc(C)cc2)cc1 | 3.11 |
| CCOC(=O)CN(C(=O)c1ccccc1[N+](=O)[O-])C(C)(C)C | 9.73 |
| CCOc1ccc(C(=O)Nc2ccc(C(F)(F)F)n(C)c2=O)cc1 | 14.5 |
| CCOc1ccc(C(=O)N2CCCC2)cc1OC | -14.7 |
| Cc1ccc(S(=O)(=O)Nc2cccnc2)cc1 | 26.8 |
| Cc1cc(C)n(-c2ccc(C(=O)N3CCc4ccccc43)cc2)n1 | -3.89 |
| O=C(COC(=O)Cc1ccc(F)cc1)Nc1cc(S(=O)(=O)N2CCOCC2)ccc1N1CCCC1 | -17.5 |
| CCN(CC)S(=O)(=O)c1ccc(O)c(NS(=O)(=O)c2ccccc2F)c1 | 5.58 |
| COc1ccc2nc(-c3ccccc3)nc(SCC(=O)NCC3CCCO3)c2c1 (stereo not drawn) | 7.99 |
| CCCC(=O)Nc1nc2nc(-c3ccccc3)cc(=O)n2[nH]1 | 7.12 |
| COc1ccc(C2C(C(=O)NCCN(C)C)c3ccccc3C(=O)N2C)cc1OC (stereo not drawn) | 18.9 |
| CNC(=O)c1ccc(NC(=O)C2CCN(S(=O)(=O)c3cccc(C(F)(F)F)c3)CC2)cc1 | 13.9 |
| Nc1cc(C(=O)OCC(=O)NNC(=O)c2ccccc2)ccc1Cl | 11.1 |
| COc1ccc(/C=C/C(=O)NC(=S)Nc2cc3oc4ccccc4c3cc2OC)cc1 | 6.42 |
| Cc1ccc(C)c(-c2nnc(NC(=O)C3=COCCO3)o2)c1 | -6.03 |

| Structure (SMILES) | hERG current change (%, negative = inhibition) at 10uM [%] |
| --- | --- |
| CC1CCCCC1NS(=O)(=O)c1ccc2c(c1)CCC(=O)N2 (stereo not drawn) | -19.3 |
| Cc1ccc2nc(Cl)c3cc(C(=O)N(CCN(C)C)Cc4ccco4)sc3c2c1 | -39.8 |
| Cc1ccc(OCC(=O)NNC(=O)CSc2ncnc3sc(C)c(C)c23)cc1 | 39.6 |
| COc1cccc(NC(=O)N2CCC(N3CCCCC3)CC2)c1 | -7.99 |
| CCOc1ccc(N(CC(=O)NCc2ccc(OC)cc2)S(C)(=O)=O)cc1 | 2.61 |
| CCOC(=O)CSc1nnc(Cn2c(=O)sc3ccccc32)n1C | -7.01 |
| Nc1nc(Sc2ncccc2[N+](=O)[O-])n[nH]1 | 3.27 |
| CC(=O)N1CCc2cc(S(=O)(=O)NC(Cc3ccccc3)C(=O)O)ccc21 (stereo not drawn) | 11 |
| CCOC(=O)c1sc2nccc(N(C)C)c2c1N=CNOCc1c(F)cccc1Cl | -9.04 |
| Cc1ccccc1OCC(=O)N/N=C/c1ccc(N(C)C)cc1 | -4.56 |
| O=S(=O)(Nc1ccc(S(=O)(=O)N2CCOCC2)cc1)c1ccccc1 | 1.13 |
| CC(=O)c1ccc(N2CCN(c3ccc(S(=O)(=O)N4CCN(C)CC4)cn3)CC2)cc1 | -24.4 |
| CCc1nnc(NC(=O)OCc2ccccc2)s1 | -3.89 |
| c1cc(Nc2cccc3nccnc23)c2nccnc2c1 | 17.9 |
| O=C(Nc1ccccc1N1CCN(C(=O)c2ccc(Cl)cc2)CC1)c1ccc2c(c1)OCO2 | -46.8 |
| COc1ccc(-n2nnnc2SCC(=O)NNC(=O)c2ccc([N+](=O)[O-])cc2)cc1 | -18.6 |
| CCCc1nc(SCC(=O)Nc2nc3c(s2)CCCC3)c2ccccc2n1 | -2.46 |
| CC(Oc1ccc(F)cc1)C(=O)Nc1cc(S(=O)(=O)N2CCOCC2)ccc1N1CCCCC1 (stereo not drawn) | 6.32 |
| CC(=O)c1c(C)oc2ccc(NS(=O)(=O)c3ccc(F)cc3C)cc12 | -13.8 |
| O=C(COC(=O)c1cccs1)Nc1ccccc1C(F)(F)F | 15.8 |
| Cc1cc(C)nc(SCc2ccc(C(=O)N/N=C/c3ccccn3)cc2)n1 | -32.8 |
| CCOc1ccc(Nc2nc(N)nc(CCl)n2)cc1 | -8.2 |

| Structure (SMILES) | hERG current change (%, negative = inhibition) at 10uM [%] |
| --- | --- |
| Cc1noc(C)c1COc1ccc(C(=O)Nc2ccccc2)cc1 | 35.2 |
| COc1ccc(NC(=O)CCCNC(=O)Cn2cnc3sc(C)c(C)c3c2=O)c(OC)c1 | 22.5 |
| CC1(C)Cc2ccccc2-c2nnc(SCc3ccc(C#N)cc3)n21 | -58.9 |
| CC(C)C[C@@H]1NC(=O)[C@H](C(C)C)NC(=O)c2cc([N+](=O)[O-])cc(I)c2OCC[C@@H](C(N)=O)NC1=O | 13.3 |
| Cc1ccc(N2CC(C(=O)NC3CC3)CC2=O)cc1 (stereo not drawn) | 12.8 |
| S=C(NCCN1CCCCC1)Nc1ccccc1 | 0.941 |
| CCOc1cc(C(=O)N[C@@H](C)C(=O)N2CCC3(CC2)NCCc2[nH]cnc23)cc(OCC)c1OCC | 19.8 |
| Cc1ccc(CNC(=O)c2ccc(Cn3nc(C)c(Cl)c3C)o2)cc1 | -20.2 |
| O=c1[nH]c(Sc2ccc([N+](=O)[O-])cc2[N+](=O)[O-])nc2ccccc12 | 9.99 |
| CS(=O)(=O)Nc1ccccc1C(=O)O | -11.9 |
| O=C(Nc1nc2ccc(Cl)cc2s1)[C@@H]1CCCN1C(=O)c1cccs1 | 3.87 |
| C/C(CCc1oc2ccc(Cl)cc2c1-c1ccc(C)o1)=N\O | 22.9 |
| CC1CN(C(=O)C2(C)CC2(Br)Br)CC(C)O1 (stereo not drawn) | -30.6 |
| COC(=O)CCC(=O)Nc1ccc(S(=O)(=O)Nc2nc(C)cc(C)n2)cc1 | 12.9 |
| O=C(CN1CCC(C(=O)c2ccc3c(c2)OCCO3)CC1)NCc1ccccc1 | -8.17 |
| CCOC(=O)C(=O)C1=C(N2CCOCC2)/C(=C\c2cccc([N+](=O)[O-])c2)CC1 | -27.6 |
| CNC(=S)N/N=C/c1c(C)c(C(=O)c2ccc(F)cc2)n2ccccc12 | 20.4 |
| COCCn1c(SCC(=O)/C=C2\N(C)c3ccccc3C2(C)C)nnc1-c1ccncc1 | -37.4 |
| COc1ccc(CCNC(=O)C(=O)NCC2CCCN2S(=O)(=O)c2cccs2)cc1OC (stereo not drawn) | -21.1 |
| O=C(CSc1nccc(=O)[nH]1)Nc1ccc(S(=O)(=O)N2CCOCC2)cc1 | 7.52 |
| COc1ccc(-c2cc3nc(C)cc(N4CC(C)CC(C)C4)n3n2)cc1 (stereo not drawn) | 8.41 |
